In PubChem BioAssay AID1508623 (National Center for Advancing Translational Sciences (NCATS), 2021):
Screen size: about 48,000 compounds; about 450 (0.94%) were called active. About 19% were inconclusive and are not listed. The call rests on the fitted dose curve; in most records, active means well fitted inhibition curve with a large enough effect; inconclusive means small, poorly fitted or top-dose-only effect; inactive means no such curve, though single readings can be large or run the other way. The list shows a part of the results.

Assay: Primary qHTS for Identification of Small Molecule Inhibitors of Huntingtin Promoter Activity; further: nearly all actives have a fitted effect of over 50% in size
Conditions: HEK293 HTT promoter firefly luciferase reporter (activity 0% = vehicle and -100% = no light), 24 h; series mostly up to 57.5 µM; activity change, negative = inhibition: at the top concentration
How it was run: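 Firefly luciferase readout (Dual-Glo, 10 min RT) after 24 h, 37 °C compound exposure (final up to 57.5 uM) of HEK293 reporter cells cultured 24 h beforehand; PTC124 at 50 uM final as control inhibitor; activity scaled vehicle 0%, zero RLU -100%.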
Potency means the concentration at half of the fitted maximal effect.

Row | SMILES | activity change, negative = inhibition | Potency
1 | Cc1ccc2[nH]c(=O)c3cc(C(=O)N4CCN(c5ccccc5)CC4)sc3c2c1 | inactive: -5.11% | 
2 | COc1cccc(NC(=O)NCc2ccc3c(c2)CCN3C(=O)c2ccccc2)c1 | inactive: -13.8% | 
3 | Cc1cccc(C(=O)Nc2sc3c(c2C(=O)NCc2ccco2)CCCC3)c1 | inactive: 22.2% | 
4 | CCN(CC)S(=O)(=O)c1ccc2c(c1)N(CC(=O)NCCCN1CCN(c3ccccc3F)CC1)C(=O)CO2 | inactive: -3.86% | 
5 | CCc1ccc(NC(=O)c2cc(C(C)=O)n3ccccc23)cc1 | inactive: 27.9% | 
6 | CC(C)c1ccc(C2N3CC4(C)CN2CC(c2ccccc2)(C3)C4=O)cc1 (centres undefined) | inactive: -15.9% | 
7 | CCCc1nn2c(=O)cc(COC(=O)c3cccc(NC(=O)COc4ccc(F)cc4)c3)nc2s1 | inactive: 1.75% | 
8 | CCOC(=O)c1scc(-c2ccccc2)c1S(=O)(=O)Nc1ccccc1F | inactive: -26.3% | 
9 | Clc1cccc(N2CCN(c3ncnc4c3nc3n4CCCCC3)CC2)c1 |  | active: 10 µM
10 | Cc1nc(-c2ccc(Cl)cc2)sc1CCNC(=O)C(=O)Nc1ccc(F)cc1F | inactive: -5.87% | 
11 | Cc1cc(C)c(Cn2c3ccccc3c3cnn(CC(=O)NC4CCC(C)CC4)c(=O)c32)c(C)c1 (centres undefined) | inactive: -25.4% | 
12 | O=C(O)c1cc(NC2(c3ccccc3)C(=O)c3ccccc3C2=O)ccc1Cl | inactive: -2.92% | 
13 | CCc1ccc(NC(=O)CN2CCN(Cc3ccccc3)S2(=O)=O)cc1 | inactive: -13.6% | 
14 | Cc1oc2c(c(C)cc3oc(=O)c(CC(=O)NCCc4ccccc4F)c(C)c32)c1C | inactive: -2.91% | 
15 | Cc1ccc(Cn2c(C(=O)O)c(CNCc3ccccc3Cl)c3ccc(C)cc32)cc1 | inactive: -20.1% | 
16 | Cc1ccccc1-n1c(SCC(=O)Nc2ccc(Cl)cc2F)nnc1-c1cc2occc2n1C | inactive: -16.3% | 
17 | Cc1cccc(NC(=O)CCCn2c(C)c3cnn(-c4ccccc4)c(=O)c3c2C)c1C | inactive: -17.2% | 
18 | CCOc1ccccc1CNS(=O)(=O)c1ccc2c(c1)CCCN2C(C)=O | inactive: -26.7% | 
19 | O=C(Cn1ccn(-c2ccc(F)c(F)c2)c(=O)c1=O)Nc1ccccc1F | inactive: -7.33% | 
20 | COc1cccc(NC(=O)CSc2nc3c(oc4ccccc43)c(=O)n2Cc2ccco2)c1 | inactive: -28.7% | 
21 | O=C(CCSc1nc(-c2ccco2)cc(C(F)(F)F)n1)Nc1cccc(O)c1 | inactive: -26.6% | 
22 | O=C(Nc1ccc2oc(-c3cccnc3)nc2c1)c1cccc(Br)c1 | inactive: -6.77% | 
23 | Cc1ccc(N(CC(=O)NCCc2ccc(Cl)cc2)S(=O)(=O)N(C)C)cc1 | inactive: -28.1% | 
24 | CC(C)CCNC(=O)CCCN1C(=O)c2ccccc2Sc2ncccc21 | inactive: -17.3% | 

Row | SMILES | activity change, negative = inhibition | Potency
25 | COc1cc(-c2noc(CN3CCN(c4ccccc4)CC3)n2)cc(OC)c1OC | inactive: 8.59% | 
26 | CCOC(=O)c1ccccc1NC(=O)N1CCc2c(sc(C)c2CC)C1c1ccccc1 (centres undefined) | inactive: -24.3% | 
27 | Cc1cccc(NC(=O)C(=O)NCC(c2ccc3c(c2)OCO3)N2CCOCC2)c1C (centres undefined) | inactive: -23.9% | 
28 | CN1CCN(C(CNC(=O)c2cccc(F)c2)c2ccc3c(c2)OCO3)CC1 (centres undefined) | inactive: -8.1% | 
29 | CCOc1ccc(-n2c(Cc3ccccc3)nnc2SCc2nc(-c3ccccc3OC)no2)cc1 | inactive: -15% | 
30 | Cc1cc(C)c(NC(=O)C2CCN(c3nc4ccccc4[nH]3)CC2)c(C)c1 | inactive: 3.16% | 
31 | Fc1ccc(C(c2ccc(F)cc2)N2CCN(CC=Cc3ccccc3)CC2)cc1 | inactive: -19.8% | 
32 | O=C(Nc1ccc2oc(-c3ccccc3F)nc2c1)c1ccccc1Cl | inactive: 25% | 
33 | Cc1cccc(CSc2ncc(CO)n2Cc2ccc(F)cc2)c1 | inactive: -13.7% | 
34 | Cc1ccc2c(c1)-c1nc(-c3ccc(Cl)cc3)cc(-c3coc4ccccc4c3=O)c1CO2 | inactive: -15% | 
35 | CCCSc1ncc(Cl)c(C(=O)Nc2ccc(S(=O)(=O)Nc3ncccn3)cc2)n1 | inactive: -15.1% | 
36 | COc1ccc(NC(=O)CSc2ncc3c(n2)-c2cc(Cl)ccc2N(Cc2ccccc2F)S3(=O)=O)cc1 | inactive: -8.76% | 
37 | Cc1cc(C)c2c(=O)cc(C(=O)Nc3sc4c(c3C(=O)NCc3ccccc3)CCCC4)oc2c1 | inactive: 0.603% | 
38 | Fc1ccc(-n2ncc3c(NCCCN4CCOCC4)ncnc32)cc1 | inactive: 10.2% | 
39 | COC(=O)c1cc(S(=O)(=O)NCC2CCN(Cc3ccc(F)cc3)CC2)cn1C | inactive: -19.9% | 
40 | Cc1ccc2c(c1)N(CCC(=O)NCc1ccc(F)cc1)C(=O)CO2 | inactive: -11.7% | 
41 | CC=C1C2C=C(C)CC1(N)c1ccc(=O)[nH]c1C2 (centres undefined) | inactive: 0.234% | 
42 | CCOCCc1nn2c(=O)cc(COC(=O)CNC(=O)c3ccc(C(C)(C)C)cc3)nc2s1 | inactive: -22.3% | 
43 | COc1cc(NC(=O)CCc2c(C)nn(-c3ccc4nncn4n3)c2C)cc(OC)c1OC | inactive: -13.4% | 
44 | Cc1ccc(Cl)cc1N1CCN(S(=O)(=O)c2ccc3[nH]c4c(c3c2)CCCCC4)CC1 | inactive: -25.4% | 
45 | Cc1c(CC(=O)NCCc2ccccc2F)c(=O)oc2c(C)c3occ(C(C)(C)C)c3cc12 | inactive: -21.8% | 
46 | COc1ccc(NC(=O)CSc2cn(CC(=O)N3CCOCC3)c3ccccc23)cc1OC | inactive: -8.02% | 
47 | COc1ccccc1CNS(=O)(=O)c1cc(C(=O)Nc2cccc(C(F)(F)F)c2)ccc1F |  | active: 28.2 µM
48 | Cc1cccc(OCC(=O)Nc2c(C)ccc3nsnc23)c1C | inactive: -22.3% | 

Row | SMILES | activity change, negative = inhibition | Potency
49 | CCc1ccc(S(=O)(=O)c2nnn3c2nc(N2CCC(C)CC2)c2cc(Cl)ccc23)cc1 | inactive: -4.16% | 
50 | COc1ccc(-c2cc(C(=O)NCc3cc(OC)c(OC)c(OC)c3)[nH]n2)cc1 | inactive: -13.7% | 
51 | O=C(CSc1ncc(S(=O)(=O)c2ccc(Br)cc2)c(=O)[nH]1)NCc1ccc(Cl)cc1 | inactive: -8.54% | 
52 | Cc1ccc(C)c(NC(=O)CCN2C(=O)c3ccccc3Sc3ncccc32)c1 | inactive: -13.9% | 
53 | O=C(Nc1ccccc1)C(Cc1ccccc1)N1Cc2ccccc2C1=O (centres undefined) | inactive: -21.5% | 
54 | CCOc1ccc(-c2nc(CSCC(=O)N3CCN(c4cccc(C(F)(F)F)c4)CC3)c(C)o2)cc1 |  | active: 15.8 µM
55 | Cc1nc(N2C(=O)c3oc4ccccc4c(=O)c3C2c2ccccc2F)sc1C (centres undefined) | inactive: -13.6% [at 11.5 µM] | 
56 | COc1cccc(N2CCN(S(=O)(=O)c3cc(Br)cc4c3N(C(=O)C3CC3)CC4)CC2)c1 | inactive: 19.7% | 
57 | CN1CCN(C(CNC(=O)C(=O)Nc2ccccc2)c2ccc3c(c2)OCO3)CC1 (centres undefined) | inactive: -10.4% | 
58 | Cc1cccc(-c2noc(CN(C(=O)COc3ccc(C(C)C)cc3)C(C)C)n2)c1 | inactive: -25.9% | 
59 | Cc1ccc(C)c(CSc2nc3ncccc3[nH]2)c1 | inactive: -14.9% | 
60 | Cc1ccc(CNC(=O)Cn2c3ncccc3c(=O)n2-c2ccc(C)cc2)cc1 | inactive: -7.08% | 
61 | CC(C)c1cc(-c2nc(-c3cccc(Cl)c3)no2)n[nH]1 | inactive: 23% | 
62 | CCOc1ccc(CNC(=O)CSc2c3c(nc4ccc(Cl)cc24)CCCC3)cc1 | inactive: -20.7% | 
63 | Cc1ccc2oc(C(=O)Nc3sc4c(c3C(=O)NCc3ccco3)CCC4)cc(=O)c2c1 | inactive: -0.704% [at 11.5 µM] | 
64 | Cn1c(C(=O)NCc2cccc(Cl)c2)cc2oc3ccccc3c21 | inactive: -15.6% | 
65 | C=C(C)[C@@H]1CC[C@]2(C(=O)O)CC[C@]3(C)[C@H](CC[C@@H]4[C@@]5(C)CC[C@H](O)C(C)(C)[C@@H]5CC[C@]43C)[C@@H]12 | inactive: -15.2% | 
66 | COCCCNC(=O)c1ccc(Cn2c(=O)c3cccn3c3cccnc32)cc1 | inactive: -17.9% | 
67 | Cc1ccc(Cn2c(CN3CCN(c4cccc(Cl)c4)CC3)nc3c2c(=O)n(C)c(=O)n3C)cc1 | inactive: -30.1% | 
68 | NC(N)=Nc1nc(CSCCC(N)=NS(N)(=O)=O)cs1 | inactive: 18.7% | 
69 | Cc1ccc2c(=O)cc(C(=O)Nc3c(C(=O)c4ccc(F)cc4)oc4ccccc34)oc2c1C | inactive: 2.97% | 
70 | COc1ccc(NC(=O)CC(C)S(=O)(=O)c2cc3c(cc2C)NC(=O)CO3)cc1OC (centres undefined) | inactive: 4.87% | 
71 | O=C(Nc1nnc(S(=O)(=O)N2CCCCCC2)s1)c1ccc(Cl)cc1 | inactive: -20.2% | 
72 | COc1ccccc1CNC(=O)C1CCN(c2nnc(C)c3c(C)n(-c4ccccc4)nc23)CC1 | inactive: -17.4% | 

Row | SMILES | activity change, negative = inhibition | Potency
73 | Cc1ccc(NC(=O)CN2C(=O)CC(c3ccc(C)c(C)c3)=Nc3ccccc32)cc1 | inactive: 1.01% | 
74 | CCC(CC)C(=O)Nc1cc(-c2nc3cccnc3s2)ccc1C | inactive: -3.37% | 
75 | Cc1cccc(C)c1OC(=O)CSc1nnc(-c2ccc3c(c2)OCO3)o1 | inactive: -1.38% | 
76 | CCOC(=O)Cn1c(=O)oc2cc(S(=O)(=O)N3CCN(c4ccc(F)cc4)CC3)ccc21 | inactive: -13.1% | 
77 | COc1ccc(Nc2c(-c3ccsc3)nc3nc(C)cc(C)n23)cc1 | inactive: -11.9% | 
78 | COc1ccc(CCNC(=O)c2c(C)oc3ncn(CC(C)C)c(=O)c23)c(OC)c1 | inactive: 15.7% | 
79 | CCSc1nc2ccccc2c(OCc2cc(C(=O)OC)ccc2OC)c1C(=O)OC | inactive: -34.2% | 
80 | COC(=O)c1c(C)sc(-c2c(-c3ccc(OC)c(F)c3)[nH]c3c2c(=O)n(C)c(=O)n3C)c1O | inactive: 17.5% | 
81 | CC(C)C(=O)Nc1nnc(S(=O)(=O)N2c3ccccc3CC2C)s1 (centres undefined) | inactive: -8.06% | 
82 | CCCOc1cccc(C(=O)Nc2cccc(NC(=O)c3ccc(Cl)cc3Cl)c2)c1 | inactive: -21.9% | 
83 | Cc1ccc(C(C)C)c(OCC(=O)Nc2ccc(O)c(-c3nc4cc(Cl)ccc4o3)c2)c1 | inactive: 0.394% | 
84 | CCOC(=O)c1c(-c2ccccc2)oc2ccc(OCc3cccc(Br)c3)cc12 | inactive: -18.2% | 
85 | O=C(Cn1cc(C(=O)c2cccs2)c2ccccc21)Nc1ccc(Br)cc1 | inactive: -6.06% | 
86 | O=C1CCSC2(C(=O)N(Cc3ccc(F)cc3)c3ccccc32)N1c1cccc(F)c1 (centres undefined) | inactive: -29.1% | 
87 | CCN1C(=O)c2ccccc2S(=O)c2ccc(C(=O)NCc3ccc(Cl)cc3)cc21 (centres undefined) | inactive: -41.3% | 
88 | CCN(c1cccc(C)c1)S(=O)(=O)c1c(C)nc2sc(C)cn2c1=O | inactive: -7.73% | 
89 | COc1cccc(C(c2sc3nc(-c4ccco4)nn3c2O)N2CCN(C)CC2)c1 (centres undefined) | inactive: 11.5% | 
90 | COc1ccc(CNC(=O)CN(C)S(=O)(=O)c2ccc3c(c2)c(=O)n(C)c(=O)n3C)cc1 | inactive: -3.91% | 
91 | COc1ccc(C(=O)Oc2cc(-c3ccc(OC)c(OC)c3)cc(=O)c3c(C)oc(C)c23)cc1 | inactive: -25.9% | 
92 | C1N2CN3CN1CN(C2)C3 | inactive: 0.881% | 
93 | COc1ccc(-c2cc(C(=O)NCCc3ccccc3)c3c(-c4ccc(Cl)cc4)[nH]nc3n2)cc1 | inactive: -9.56% | 
94 | COc1ccc(CCNC(=O)CS(=O)(=O)Cc2nc(-c3cccc(Cl)c3)oc2C)cc1OC | inactive: -14.6% | 
